Experimental findings from PubChem BioAssay AID463173 (ICCB-Longwood Screening Facility, Harvard Medical School, 2010) are described below.

The campaign covered roughly 52,000 compounds. About 4,300 (8.3%) were called active. Rule as the data show it: active = survival mostly below about 52% (no sharp cut-off); inactive = mostly above about 56%. Some of the results follow.

The test system of the assay is DeltatarO mutant. As to the kind of experiment: growth inhibition of S. aureus wild type versus tarO mutant, primary screen, teichoic acid synthesis inhibitors, RN4220, OD600 (AID 463173). The following applies: OD600, 18 h, stronger effect = lower value, screened at 18.75 µg/mL (by protocol).
Turning to `CC(C)(C)NC(=O)CSc1nc(O)cc(=O)[nH]1`, the survival was inactive: 68%.
The same measure for `CCNc1ccc(-c2nc(-c3ccncc3)no2)cc1[N+](=O)[O-]`: inactive: 79%.
The same measure for `CSc1ncc(Cl)c(C(=O)Nc2c(C(=O)c3ccc(C)c(F)c3)oc3ccccc23)n1`: inactive: 86%; for `COc1cccc(NC(=O)CCc2nc(-c3cccs3)no2)c1`: inactive: 75%.
Next, `CCC1CCCCN1C(=O)c1cc(Cl)ccc1OC` (stereo not drawn): inactive: 97%.
Consider `CCOc1ccc(C2C(=O)N(C3CCCCC3)CC(=O)N2CCC2=CCCCC2)cc1OC` (stereo not drawn), for which the survival is inactive: 87%.
As to `O=C(O)c1ccc2nccnc2c1`, the survival is inactive: 90%.
Next, `CCOc1ccc(C(=O)c2cn(CC(=O)Nc3ccc(F)c(F)c3)c3cc4c(cc3c2=O)OCCO4)cc1`: inactive: 130%; `CCS/C(=C(\C#N)C(N)=O)c1ccc(-c2ccccc2)[nH]1`: inactive: 59%; `CCOc1ccccc1C(=O)Nc1ccc2nc3c(c(Nc4ccc(OC)c(OC)c4)c2c1)CCCC3`: inactive: 58%.
The same measure for `O=C(NCc1ccc(F)cc1)c1ccc2c(c1)nc1n2CCCCC1`: inactive: 80%; for `O=C(Nc1ccccc1)c1ccc2c(O)c(S(=O)(=O)c3ccc(Cl)cc3)c(=O)[nH]c2c1`: inactive: 74%; for `Cc1ccc(-c2ccc(C#N)c(=O)n2CC(=O)N2CCNC(=O)C2(C)C)cc1`: inactive: 88%.
`Cc1cc(Nc2cccc(Cl)c2)nc2ccc(NC(=O)c3cccc(N(C)C)c3)cc12`: the survival is inactive: 106%.
`COc1ccc(-c2noc(-c3nnn(-c4ccc(C(C)C)cc4)c3C)n2)cc1OC`: the survival was inactive: 67%.
Take `Cc1cc(O)c2c(C)c(CC(=O)N3CCCCC3)c(=O)oc2c1`: the survival was inactive: 69%.
The same measure for `CCOC(=O)c1ccc(NC(=O)CN2Cc3ccccc3C2=O)cc1`: inactive: 94%; for `COc1ccccc1C(=O)Nc1onc2c1CCCC2`: inactive: 77%.
Next, `COc1cccc(CNC(=O)C(Cc2ccccc2)NS(=O)(=O)c2ccc3c(c2)oc(=O)n3C)c1` (stereo not drawn): inactive: 72%.
The same measure for `Cc1cccc(OC(=O)c2cc(-c3ccc4c(c3)OCCO4)on2)c1C`: active: -1%; for `Cn1c(=O)c(C2=NS(=O)(=O)c3ccccc3N2)c(O)c2ccccc21`: inactive: 77%; for `Cc1cccc(N2CCN(c3ccc(NC(=O)c4ccccc4)cc3C(=O)O)CC2C)c1` (stereo not drawn): inactive: 81%.
On to `Cc1cccc(NC(=O)c2ccc3nc(CCc4ccccc4)oc3c2)c1C`, for which the survival is inactive: 74%.
Turning to `CCn1c(CNC(=O)C(OC)c2ccccc2)nnc1SC` (stereo not drawn), the survival was inactive: 87%.
Next, `CCc1ccc(NC(=O)N2CCC(N3CCN(Cc4ccc(C)cc4)C(=O)C3=O)CC2)cc1`: inactive: 124%; `COc1ccc(-c2cc3nccc(-c4cc(Cl)c(C)cc4O)n3n2)cc1`: inactive: 85%; `CC(C)(C#N)Nc1ccccc1`: inactive: 78%.
As for `CCn1c(C(=O)N2CCCC(C(=O)N3CCN(c4ccccc4)CC3)C2)cc2sccc21` (stereo not drawn), the survival is inactive: 66%.
As to `CCOc1ccccc1C1C(C(=O)Nc2ccccc2)=C(C)Nc2c(C(=O)Nc3ccc(F)cc3)cnn21` (stereo not drawn), the survival is inactive: 82%.
The same measure for `CCn1cc(C(=O)N2CCN(c3ccc(OC)cc3)CC2)c2cc(OC)c(OC)cc2c1=O`: inactive: 58%.
As for `O=C(CSc1ncccn1)n1c2c(c3ccccc31)CCCC2`, the survival was inactive: 96%.
Regarding `O=S(=O)(c1ccc2nc(Nc3cccc(F)c3)ccc2c1)N1CCCC1`, the survival was inactive: 72%.
The same measure for `CCOc1ccc(-c2cccc(NS(=O)(=O)c3ccccc3C(F)(F)F)c2)nn1`: inactive: 91%.
The same measure for `CCOc1ccc(NC(=O)C2CC(=O)NC(=Nc3ccccc3)S2)cc1` (stereo not drawn): inactive: 78%; for `Cc1ccc(S(=O)(=O)NCC(Nc2cccc(Cl)c2)c2ccccc2)cc1` (stereo not drawn): inactive: 66%.
Next, `Cc1ccccc1Cn1c2ccccc2c2cnn(CC(=O)N3CCC(C)CC3)c(=O)c21`: inactive: 41%; `Cc1ccc(S(=O)(=O)NCC(c2ccc(N(C)C)cc2)N2CCc3ccccc32)cc1` (stereo not drawn): active: 0%; `CCCCSCCCNC(=O)c1c[nH]c2ccc(S(=O)(=O)Nc3cccc(OC)c3)cc2c1=O`: inactive: 90%.
Regarding `Cc1cc2nc(N(Cc3cccnc3)C(=O)c3ccc(Cl)s3)sc2cc1C`, the survival is active: 32%.
For the compound `COc1ccc(-n2ccnc(NCCc3ccc(Cl)cc3)c2=O)cc1OC`, the survival was inactive: 60%.
Next, `CCN(C(=O)Cc1ccccc1OC)c1nnc(-c2ccncc2)s1`: inactive: 70%; `CCN(Cc1ccccc1)Cc1c(O)ccc2oc(C)c(C(=O)Nc3ccccc3C)c12`: active: 29%; `O=C(Cc1ccccc1)Nc1nnc2n1CCS2`: inactive: 71%.
In the case of `CC(=O)N1c2ccc(S(=O)(=O)N(C)CC(=O)N(Cc3ccccc3)C(C)C)cc2CC1C` (stereo not drawn), the survival is inactive: 72%.
For `CC(C)(C)c1ccc(C(=O)N2CCN(CCc3ccccn3)CC2)cc1`, the survival is inactive: 45%.
`CCC(C)NC(=O)Cn1c(=O)n(-c2ccc(C)c(C)c2)c(=O)c2c(C)c(C(=O)N(CC)CC)sc21` (stereo not drawn): the survival is inactive: 80%.
Next, `CCOc1ccccc1NC(=O)CSC1=Nc2ccccc2C2=NC(CC(=O)NCc3ccc4c(c3)OCO4)C(=O)N12` (stereo not drawn): inactive: 106%; `Cc1nn(CC(=O)NCCc2ccccc2)c(=O)c2c1sc1ccccc12`: inactive: 79%; `Clc1nc(Cl)nc(N2CCCCC2)n1`: inactive: 86%.
On to `O=c1cc(-c2ccccc2)n2c(SCc3ccc(Br)cc3)nnc2[nH]1`, for which the survival is inactive: 104%.
The same measure for `CCS(=O)(=O)c1ncc(Cl)c(C(=O)N2CCN(c3ccc(OC)cc3)CC2)n1`: inactive: 68%; for `CCOc1ccc(NC(=O)c2oc3ccccc3c2NC(=O)COc2cccc(OC)c2)cc1`: inactive: 78%.
Next, `Cc1cccc(CN2C(=O)c3ccccc3Sc3ccc(C(=O)NCc4ccco4)cc32)c1`: inactive: 102%; `O=c1c2ccccc2nc(/C=C/c2cccc3ccccc23)n1-c1ccc(F)cc1F`: inactive: 99%.
Consider `COc1ccc(/C=C(\NC(=O)c2ccccc2)C(=O)N2CCN(C)CC2)cc1`, for which the survival is inactive: 94%.
The same measure for `Cc1ccc(CNC(=O)CCc2cn(C)c3ccccc23)cc1`: inactive: 91%; for `NS(=O)(=O)c1ccc(CCNC(=O)C2CCN(c3ncnc4c3nc3n4CCCCC3)CC2)cc1`: inactive: 83%; for `CCC(Sc1nc2c(sc3ccccc32)c(=O)n1CCc1ccc(OC)c(OC)c1)C(=O)N(CC)CC` (stereo not drawn): inactive: 76%.
